Counter-ions that a name gives are not always drawn. The list shows a part of the results. Many values rest on one well or one pass, so single values are uncertain.
How the values were obtained:
OVCAR4 = experiment: log2 surviving fraction (library drug vs vehicle, or drug + carboplatin vs carboplatin alone; relative to plate median); ovarian cancer lines: OVCAR4 is platinum-sensitive and Ov4Carbo platinum-resistant; higher = more cell survival; conditions: library drug concentration 10 µM, 7 days
Ov4Carbo = experiment: as above; conditions: library drug concentration 10 µM, 7 days

Row | SMILES | log2 surviving fraction (OVCAR4; carboplatin co-treatment 0 µM) | log2 surviving fraction (OVCAR4; carboplatin co-treatment 5 µM) | log2 surviving fraction (Ov4Carbo; carboplatin co-treatment 0 µM) | log2 surviving fraction (Ov4Carbo; carboplatin co-treatment 5 µM)
1 | COc1c(C)c2c(c(O)c1C/C=C(\C)CCC(=O)OCCN1CCOCC1)C(=O)OC2 [Mycophenolate mofetil (CellCept)] | -4.53 | -4.08 | -6.18 | -4.65
2 | COC(=O)Nc1nc2cc(C(=O)c3ccc(F)cc3)ccc2[nH]1 [Flubendazole (Flutelmium)] | -0.387 | 0.695 | -0.859 | -5.94
3 | O=c1[nH]c(=O)n([C@H]2C[C@H](O)[C@@H](CO)O2)cc1C(F)(F)F [Trifluridine (Viroptic)] | -1.44 | -7.06 | -2.59 | -3.19
4 | C[N+]1(C)CCOC(O)(c2ccc(-c3ccc(C4(O)C[N+](C)(C)CCO4)cc3)cc2)C1 (stereo not drawn) [Hemicholinium Bromide] | 0.447 | -0.424 | -0.0637 | -0.957
5 | COc1ccccc1OCC(O)CO (stereo not drawn) [Guaifenesin (Guaiphenesin)] | 0.0182 | 0.11 | -0.0699 | 0.187
6 | Cc1cc(C)nc(NS(=O)(=O)c2ccc(N)cc2)n1 [Sulfamethazine] | 0.243 | 0.183 | -0.348 | -0.444
7 | O=C(CCCN1CCN(c2ccccn2)CC1)c1ccc(F)cc1 [Azaperone] | 0.715 | -0.29 | -0.076 | 0.822
8 | COc1ccc(C2CNC(=O)C2)cc1OC1CCCC1 (stereo not drawn) [Rolipram] | 0.0249 | 1.3 | 0.982 | 0.551
9 | NCCS [Cysteamine HCl] | 1.19 | -2.91 | -0.89 | -0.875
10 | CC(C)[N+]1(C)[C@@H]2CC[C@H]1C[C@@H](OC(=O)C(CO)c1ccccc1)C2 (stereo partly drawn) [Ipratropium bromide] | -8.96 | -1.73 | 0.35 | -0.269
11 | CC1(C)[C@@H](OC(=O)CCC(=O)O)CC[C@]2(C)[C@H]3C(=O)C=C4[C@@H]5C[C@@](C)(C(=O)O)CC[C@]5(C)CC[C@@]4(C)[C@]3(C)CC[C@@H]12 [Carbenoxolone Sodium] | 0.0117 | 1.64 | 0.419 | 0.628
12 | O=C(O[C@H]1C[N+]2(CCCOc3ccccc3)CCC1CC2)C(O)(c1cccs1)c1cccs1 [Aclidinium Bromide] | 0.609 | 0.123 | 0.106 | 0.416
13 | CNCC[C@H](Oc1cccc2ccccc12)c1cccs1 [Duloxetine HCl (Cymbalta)] | -2.84 | -1.72 | -3.64 | -3.87
14 | Nc1nc(NC2CC2)c2ncn([C@H]3C=C[C@@H](CO)C3)c2n1 [Abacavir sulfate] | -0.558 | 0.37 | -0.607 | -0.113
15 | COC(=O)C1=CO[C@@H](O[C@@H]2O[C@H](CO)[C@@H](O)[C@H](O)[C@H]2O)[C@@H]2C(CO)=CC[C@H]12 [Geniposide] | 1.39 | 1.65 | 1.96 | 0.96
16 | COC(=O)C1=C(C)NC(C)=C(C(=O)OC(C)C)C1c1cccc2nonc12 (stereo not drawn) [Isradipine (Dynacirc)] | -8.72 | -0.749 | 0.477 | -0.252
17 | COc1ccc(C2C(=O)c3ccccc3C2=O)cc1 [Anisindione] | 0.0266 | 0.0195 | 0.157 | 0.209
18 | CC1(C)S[C@@H]2[C@H](NC(=O)Cc3ccccc3)C(=O)N2[C@H]1C(=O)O [Benzylpenicillin sodium] | 0.107 | 0.265 | 0.0147 | 1.12
19 | NCCc1ccc(O)c(O)c1 [Dopamine hydrochloride (Inotropin)] | -0.285 | -0.0583 | -0.204 | -0.495
20 | N=C(N)NC(=N)N1CCOCC1 [Moroxydine] | -0.059 | 0.853 | 0.601 | 0.317
21 | Nc1ccc(S(=O)(=O)Nc2nccs2)cc1 [Sulfathiazole] | 0.158 | 0.909 | 0.229 | 0.131
22 | Nc1ncnc2c1ncn2[C@@H]1O[C@H](CO)[C@@H](O)[C@H]1O [Adenosine (Adenocard)] | 1.87 | 1.47 | 1.13 | 0.206
23 | C[N+]1(C)[C@@H]2C[C@@H](OC(=O)C(O)(c3cccs3)c3cccs3)C[C@H]1[C@@H]1O[C@@H]12 [Tiotropium Bromide hydrate] | 0.162 | -0.0444 | -0.236 | -0.201
24 | CC1=C(/C=C/C(C)=C/C=C/C(C)=C/C(=O)O)C(C)(C)CCC1 [Tretinoin (Aberela)] | -0.0128 | -0.339 | -1.1 | -0.487
25 | CC(C)(Oc1ccc(Cl)cc1)C(=O)O [Clofibric acid] | 0.696 | 0.162 | 0.463 | 0.194
26 | CCC(C)n1ncn(-c2ccc(N3CCN(c4ccc(OCC5COC(Cn6cncn6)(c6ccc(Cl)cc6Cl)O5)cc4)CC3)cc2)c1=O (stereo not drawn) [Itraconazole (Sporanox)] | 0.629 | 0.614 | 0.369 | -0.271
27 | C[N+]1(C)CCC(=C(c2ccccc2)c2ccccc2)CC1 [Diphemanil methylsulfate] | -0.0271 | -0.189 | -0.316 | 0.384
